From the supplement of paper PMC8728848
The other results are listed elsewhere or left out.

Assays:
Assay in all cases: glycan array binding signal (z-score within array); higher = stronger binding
Conditions in all cases: glycan notation: IUPAC condensed, linker removed
[1] = target: Gal(b1-3)GlcNAc(b1-6)[Gal(b1-3)]GalNAc
Outline: (§1)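 The binding signal is a Z-score computed within each array. Data were drawn from 3228 arrays in the Consortium for Functional Glycomics database, restricted to those with a known protein sequence. Scores were averaged over arrays of the same protein sequence at different concentrations or buffers, and over linkers, and negative values can be taken as non-binding.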

Gal(b1-3)GlcNAc6S = target: Gal(b1-3)GlcNAc6S
Outline: as §1

[2] = target: Gal(b1-3)[Fuc(a1-4)]GlcNAc
Outline: as §1

[3] = target: Gal(b1-3)[Fuc(a1-4)]GlcNAc(b1-2)Man
Outline: as §1

[4] = target: Gal(b1-3)[Fuc(a1-4)]GlcNAc(b1-2)Man(a1-3)[Gal(b1-3)[Fuc(a1-4)]GlcNAc(b1-2)Man(a1-6)]Man(b1-4)GlcNAc(b1-4)[Fuc(a1-6)]GlcNAc
Outline: as §1

[5] = target: Gal(b1-3)[Fuc(a1-4)]GlcNAc(b1-3)Gal(b1-3)[Fuc(a1-4)]GlcNAc
Outline: as §1

[6] = target: Gal(b1-3)[Fuc(a1-4)]GlcNAc(b1-3)Gal(b1-4)[Fuc(a1-3)]GlcNAc
Outline: as §1

[7] = target: Gal(b1-3)[Fuc(a1-4)]GlcNAc(b1-6)GalNAc
Outline: as §1

[8] = target: Gal(b1-3)[GlcNAc(b1-6)]GalNAc
Outline: as §1

[9] = target: Gal(b1-3)[Neu5Ac(a2-6)]GalNAc
Outline: as §1

[10] = target: Gal(b1-3)[Neu5Ac(a2-6)]GlcNAc(b1-4)Gal(b1-4)Glc
Outline: as §1

[11] = target: Gal(b1-3)[Neu5Ac(b2-6)]GalNAc
Outline: as §1

Gal(b1-4)Gal = target: Gal(b1-4)Gal
Outline: as §1

[12] = target: Gal(b1-4)GalNAc(a1-3)[Fuc(a1-2)]Gal(b1-4)GlcNAc
Outline: as §1

[13] = target: Gal(b1-4)GalNAc(b1-3)[Fuc(a1-2)]Gal(b1-4)GlcNAc
Outline: as §1

Gal(b1-4)Glc = target: Gal(b1-4)Glc
Outline: as §1

Gal(b1-4)Glc6S = target: Gal(b1-4)Glc6S
Outline: as §1

Gal(b1-4)GlcNAc = target: Gal(b1-4)GlcNAc
Outline: as §1

[14] = target: Gal(b1-4)GlcNAc(a1-6)Gal(b1-4)GlcNAc
Outline: as §1

Gal(b1-4)GlcNAc(b1-2)Man = target: Gal(b1-4)GlcNAc(b1-2)Man
Outline: as §1

[15] = target: Gal(b1-4)GlcNAc(b1-2)Man(a1-3)Man(b1-4)GlcNAc(b1-4)GlcNAc
Outline: as §1

[16] = target: Gal(b1-4)GlcNAc(b1-2)Man(a1-3)[Gal(b1-4)GlcNAc(b1-2)Man(a1-6)]Man(b1-4)GlcNAc(b1-4)GlcNAc
Outline: as §1

[17] = target: Gal(b1-4)GlcNAc(b1-2)Man(a1-3)[Gal(b1-4)GlcNAc(b1-2)Man(a1-6)]Man(b1-4)GlcNAc(b1-4)[Fuc(a1-6)]GlcNAc
Outline: as §1

[18] = target: Gal(b1-4)GlcNAc(b1-2)Man(a1-3)[Gal(b1-4)GlcNAc(b1-2)Man(a1-6)][Gal(b1-4)GlcNAc(b1-4)]Man(b1-4)GlcNAc(b1-4)[Fuc(a1-6)]GlcNAc
Outline: as §1

[19] = target: Gal(b1-4)GlcNAc(b1-2)Man(a1-3)[Gal(b1-4)GlcNAc(b1-2)Man(a1-6)][GlcNAc(b1-4)]Man(b1-4)GlcNAc(b1-4)[Fuc(a1-6)]GlcNAc
Outline: as §1

[20] = target: Gal(b1-4)GlcNAc(b1-2)Man(a1-3)[GlcNAc(b1-2)Man(a1-6)]Man(b1-4)GlcNAc(b1-4)GlcNAc
Outline: as §1

[21] = target: Gal(b1-4)GlcNAc(b1-2)Man(a1-3)[GlcNAc(b1-4)][Gal(b1-4)GlcNAc(b1-2)Man(a1-6)]Man(b1-4)GlcNAc(b1-4)GlcNAc
Outline: as §1

[22] = target: Gal(b1-4)GlcNAc(b1-2)Man(a1-3)[Man(a1-6)]Man(b1-4)GlcNAc(b1-4)GlcNAc
Outline: as §1

[23] = target: Gal(b1-4)GlcNAc(b1-2)Man(a1-6)Man(b1-4)GlcNAc(b1-4)GlcNAc
Outline: as §1

[24] = target: Gal(b1-4)GlcNAc(b1-2)Man(a1-6)[GlcNAc(b1-2)Man(a1-3)]Man(b1-4)GlcNAc(b1-4)GlcNAc
Outline: as §1

[25] = target: Gal(b1-4)GlcNAc(b1-2)Man(a1-6)[Man(a1-3)]Man(b1-4)GlcNAc(b1-4)GlcNAc
Outline: as §1

[26] = target: Gal(b1-4)GlcNAc(b1-2)[Gal(b1-4)GlcNAc(b1-4)]Man(a1-3)[Gal(b1-4)GlcNAc(b1-2)Man(a1-6)]Man(b1-4)GlcNAc(b1-4)GlcNAc
Outline: as §1

[27] = target: Gal(b1-4)GlcNAc(b1-2)[Gal(b1-4)GlcNAc(b1-4)]Man(a1-3)[Gal(b1-4)GlcNAc(b1-2)[Gal(b1-4)GlcNAc(b1-6)]Man(a1-6)]Man(b1-4)GlcNAc(b1-4)GlcNAc
Outline: as §1

[28] = target: Gal(b1-4)GlcNAc(b1-2)[Gal(b1-4)GlcNAc(b1-4)]Man(a1-3)[GlcNAc(b1-4)][Gal(b1-4)GlcNAc(b1-2)Man(a1-6)]Man(b1-4)GlcNAc(b1-4)GlcNAc
Outline: as §1

[29] = target: Gal(b1-4)GlcNAc(b1-2)[Gal(b1-4)GlcNAc(b1-4)]Man(a1-3)[GlcNAc(b1-4)][Gal(b1-4)GlcNAc(b1-2)[Gal(b1-4)GlcNAc(b1-6)]Man(a1-6)]Man(b1-4)GlcNAc(b1-4)GlcNAc
Outline: as §1

[30] = target: Gal(b1-4)GlcNAc(b1-2)[Gal(b1-4)GlcNAc(b1-6)]Man(a1-6)[Gal(b1-4)GlcNAc(b1-2)Man(a1-3)]Man(b1-4)GlcNAc(b1-4)GlcNAc
Outline: as §1

[31] = target: Gal(b1-4)GlcNAc(b1-2)[Gal(b1-4)GlcNAc(b1-6)]Man(a1-6)[Gal(b1-4)GlcNAc(b1-2)Man(a1-3)]Man(b1-4)GlcNAc(b1-4)[Fuc(a1-6)]GlcNAc
Outline: as §1

B1: Cohesin-hLangerin (Homo sapiens) (protein)
chain: LDDLDAVRIKVDTVNAKPGDTVRIPVRFSGIPSKGIANCDFVYSYDPNVLEIIEIEPGDIIVDPNPDKSFDTAVYPDRKIIVFLFAEDSGTGAYAITKDGVFATIVAKVKEGAPNGLSVIKFVEVGGFANNDLVEQKTQFFDGGANVGDTTEPATPTTPVTTPTTTDDLDAASYPRFMGTISDVKTNVQLLKGRVDNISTLDSEIKKNSDGMEAAGVQIQMVNESLGYVRSQFLKLKTSVEKANAQIQILTRSWEEVSTLNAQIPELKSDLEKASALNTKIRALQGSLENMSKLLKRQNDILQVVSQGWKYFKGNFYYFSLIPKTWYSAEQFCVSRNSHLTSVTSESEQEFLYKTAGGLIYWIGLTKAGMEGDWSWVDDTPFNKVQSARFWIPGEPNNAGNNEHCGNIKAPSLQAWNDAPCDKTFLFICKRPYVPSEPHHHHHH
B1 was tested, and the “glycan array binding signal (z-score)” value [1] was 0.253, the “glycan array binding signal (z-score)” value (Gal(b1-3)GlcNAc6S) was -0.423 and the “glycan array binding signal (z-score)” value [2] was -0.356. For the same binder, the “glycan array binding signal (z-score)” value [3] was -0.41, the “glycan array binding signal (z-score)” value [4] was 3.61 and the “glycan array binding signal (z-score)” value [5] was 0.139. The “glycan array binding signal (z-score)” value [6] was -0.426, the “glycan array binding signal (z-score)” value [7] was -0.398 and the “glycan array binding signal (z-score)” value [8] was -0.348. The “glycan array binding signal (z-score)” value [9] was -0.433, the “glycan array binding signal (z-score)” value [10] was -0.414 and the “glycan array binding signal (z-score)” value [11] was -0.43. For the same binder, the “glycan array binding signal (z-score)” value (Gal(b1-4)Gal) was -0.363, the “glycan array binding signal (z-score)” value [12] was -0.43 and the “glycan array binding signal (z-score)” value [13] was -0.44. For the same binder, the “glycan array binding signal (z-score)” value (Gal(b1-4)Glc) was -0.309, the “glycan array binding signal (z-score)” value (Gal(b1-4)Glc6S) was -0.378 and the “glycan array binding signal (z-score)” value (Gal(b1-4)GlcNAc) was -0.394. For the same binder, the “glycan array binding signal (z-score)” value [14] was -0.392, the “glycan array binding signal (z-score)” value (Gal(b1-4)GlcNAc(b1-2)Man) was -0.088 and the “glycan array binding signal (z-score)” value [15] was -0.352. The “glycan array binding signal (z-score)” value [16] was -0.391, the “glycan array binding signal (z-score)” value [17] was -0.226 and the “glycan array binding signal (z-score)” value [18] was -0.453. The “glycan array binding signal (z-score)” value [19] was -0.449, the “glycan array binding signal (z-score)” value [20] was -0.409 and the “glycan array binding signal (z-score)” value [21] was -0.432. The “glycan array binding signal (z-score)” value [22] was -0.298, the “glycan array binding signal (z-score)” value [23] was -0.393 and the “glycan array binding signal (z-score)” value [24] was -0.335. For the same binder, the “glycan array binding signal (z-score)” value [25] was -0.417, the “glycan array binding signal (z-score)” value [26] was -0.449 and the “glycan array binding signal (z-score)” value [27] was -0.424. The “glycan array binding signal (z-score)” value [28] was -0.44, the “glycan array binding signal (z-score)” value [29] was -0.431 and the “glycan array binding signal (z-score)” value [30] was -0.436. The “glycan array binding signal (z-score)” value [31] was -0.42.
